Positions count from the first letter of the chain named. The list shows a part of the results.
T1: UNK ZnF1-3 (human, UniProt Q9C0B0 31-174)
T1 sequence: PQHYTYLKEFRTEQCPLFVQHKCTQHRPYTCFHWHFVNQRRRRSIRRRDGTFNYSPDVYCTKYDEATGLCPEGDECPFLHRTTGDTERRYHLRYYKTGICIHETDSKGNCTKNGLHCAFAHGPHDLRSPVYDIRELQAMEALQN

B1: 100119613_100119733_569_CDS_ENSG00000154174_ENST00000284320|human|control|control (ssRNA)
RNA: GGGAGUUCUACAGUCCGACGAUCACUCCACAGGUAUAUGGCACCCGCGCCCAGCAGCAGGGGUGCCCCGACCGCCAGAGCCAGCUGCCAUCGCGGCAGCCCCCCCGUGCCCGGGCCCGCAGUCCCGCCGCCGCCCACCCCACUCAACAGAGGAUUGAGCAUCA
B2: chr5:21408736:21408737:-_ENSMUSG00000042453_ENSMUST00000161356|mus_hu|mus_mus_mus_hu_False|8_58 (ssRNA)
RNA: GGGAGUUCUACAGUCCGACGAUCGUUGACAGAGUUGUAGAUGGUGGCUUCAUGGAACUGGAAAGGGGAGCAGCCAAUGCUAUUGGAAGAGGAAGGAAGGCACUGGGUCUGUACGAGCUGCCAGGAAUCGGACCUUGCAUCCUUCAACAGAGGAUUGAGCAUCA
B3: chr17:62496016:62496017:-_ENSG00000108654_ENST00000581693|hu_hu|FALSE|FALSE (ssRNA)
RNA: GGGAGUUCUACAGUCCGACGAUCCAGAUAACACACAAUAUAAAGAGCAAUUAUGAAAAACAGACAUUUACAUAUACUUCUAAAGUCUUAUUGGGAAUAUCCUGUUGGCAUUGGAUAACCAAUCAUAGGUGCAGCUGCAGUAGCCAACAGAGGAUUGAGCAUCA
B4: chr17:4849111:4849112:-_ENSG00000108518_ENST00000225655|hu_mus|FALSE|FALSE (ssRNA)
RNA: GGGAGUUCUACAGUCCGACGAUCCCAGCCCCCAGCCCAUGUGGUUUUGGCAGCAAUAAGGGAAAUGGGGUAAUGGCCCAAAAAAUAAUGGUAUGUGUGUGUAUGGAAAGAAGGGGGUGCAAAAGCCAAAGGGAACGGUGGGGGCAACAGAGGAUUGAGCAUCA
B5: 90087342_90087766_2954_CDS_ENSMUSG00000032363_ENSMUST00000113059|mouse|control|control (ssRNA)
RNA: GGGAGUUCUACAGUCCGACGAUCCCGAAUGCCAGCUCCACAUGUCACAGAGCACUGAGACCAGUUCCCCACACCCCAAGUGGAAGGACAGAUUACAUGACGGUUGCACGGGGUUUCAGCCAGGGGACGGGGAAGAUGUUCGCACAACAGAGGAUUGAGCAUCA
B6: chr2:9570881:9570882:+_ENSG00000119203_ENST00000238112|hu_mus|hu_hu_hu_mus_False|18_48 (ssRNA)
RNA: GGGAGUUCUACAGUCCGACGAUCACUUGUCUUCUGAAGGAACCAGGGCAGGGCUCCACAGUGAUCCAAAUGGAAAUGACUGAUCAAUAGGAGAUCAAUCUCAGCUGGGUCGAUAAGAUCAAUAUAAGGAAGGGCAUCCAUUCCCAACAGAGGAUUGAGCAUCA
B7: chr3:170078963:170078964:+_ENSG00000136603_ENST00000458537|hu_mus|FALSE|FALSE (ssRNA)
RNA: GGGAGUUCUACAGUCCGACGAUCGGGAGCAAACAUUCCACAGCACUCCAGGCACUGGAUACAGGGAGCGUCGGGCUGAACAUAAAACUGAGGCGCAAAGAGACCCUGACAUUUGCCCAAGCAUUCAUGUUCCACUUCAAAGGCCAACAGAGGAUUGAGCAUCA
B8: chr11:29608385:29608386:+_ENSMUSG00000020458_ENSMUST00000102843|mus_mus|FALSE|FALSE (ssRNA)
RNA: GGGAGUUCUACAGUCCGACGAUCGUCAGUGUACUCCUUAGGAGAAUCAUCUUUAGCACUGACAAAUGUGGGAAACUCAUCUAUUAUCUCAAUGGGAGAUGAAUCGGAAAAUGUUUCACUUUCUUUCAUUUUGUCUUCCUUAGACAACAGAGGAUUGAGCAUCA
B9: 32038138_32038754_431_3pUTR_ENSMUSG00000039262_ENSMUST00000036691|mouse|control|control (ssRNA)
RNA: GGGAGUUCUACAGUCCGACGAUCUUGGGGUCGUUUCCUUUGUUUUCAGACUUCAGGCUUGGCAGGUUUGCAGGCGGUGGCAUACGCCGGGCUGUGGCAACUUUCCCGAGACUCUGUAAGCCAUGUCUAGGAAUAACUGAGGACCAACAGAGGAUUGAGCAUCA
B10: chr4:110441554:110441555:+_ENSG00000138802_ENST00000265175|hu_hu|FALSE|FALSE (ssRNA)
RNA: GGGAGUUCUACAGUCCGACGAUCUGAUAAUCCUUCUUGUAAAUUGUAGAAAUGAAUAGUGCUAUCAAAGGUCAUGAAUCCUAUUCUUGUUCGUGAAUCUCCAGGAAGCUUGUCUAGAUUUUCUAGGAGUGACUGGCACAAAAUCAACAGAGGAUUGAGCAUCA
B11: chr7:151048522:151048523:+_ENSG00000013374_ENST00000566856|hu_mus|hu_hu_hu_mus_True|18_38 (ssRNA)
RNA: GGGAGUUCUACAGUCCGACGAUCCUGUUUCUUAUUUAUUACGAUCUUGAUGUAAUUUUCUUGAAAUCCGAAAGUUUCAGCUAUUUGACACCUCAGGUCUCUGCCAGUGACAUGCAAUCGGGUCUCCAACAAGCUUUUCUUAUCCAACAGAGGAUUGAGCAUCA
B12: chr12:72996793:72996794:+_ENSMUSG00000034574_ENSMUST00000085299|mus_mus|motif|central (ssRNA)
RNA: GGGAGUUCUACAGUCCGACGAUCAGGGGGCAUGGGCAGCGCCGGCUCCAUUGUCUGAAGUGCAAAGUUGCUAUCAUUCCGGAGCCGAUAUGUGAUUUCUGGAUGGUCAUUGUUUCGGAAACAGCAAAAGAUAAAUGAAAUCCCCAACAGAGGAUUGAGCAUCA
B13: 153574126_153574246_309_5pUTR_ENSG00000196504_ENST00000410080|human|control|control (ssRNA)
RNA: GGGAGUUCUACAGUCCGACGAUCCACUCGGCGUCGCCUGCAUGGGGGGGGGGGAGGAGGAGGACGGAGGAAGUUUCUGCGCCGAGUCCUCCGUCGGGAAAACUCUACCAACUUCCCCAGGGGAAGGGAAGACAACAGUGUCCCCAACAGAGGAUUGAGCAUCA
B14: chr2:9570881:9570882:+_ENSG00000119203_ENST00000238112|hu_mus|hu_hu_hu_mus_False|48_98 (ssRNA)
RNA: B6 RNA with G39A, A117G, A123G
B15: 100036852_100040021_4268_CDS_ENSMUSG00000023026_ENSMUST00000100203|mouse|control|control (ssRNA)
RNA: GGGAGUUCUACAGUCCGACGAUCAUUCACCCAGAUCUCUCCCAGGUGAGAGUCUCCAACAGGUCCUUUGGUCUCAGGAUUGACAAUAACUACUUUUACUCCAGGUAAGAUCUUUCCAGAUUCAGAAAGCAGGAGGCUCUGGGGCAACAGAGGAUUGAGCAUCA
B16: chr2:179515052:179515053:+_ENSMUSG00000000305_ENSMUST00000000314|mus_mus|FALSE|FALSE (ssRNA)
RNA: GGGAGUUCUACAGUCCGACGAUCGCGUUCCCGCGCAGUGACGGUAAAGGCCACCUGCUCUGAGGGGAUCUUCAACUCCCUAGUGGCGAAGACUGUCCCAUCCGCCCCGACUUUGAAGUCCAAGCUGUUGGUCUCAUACUGCAUCAACAGAGGAUUGAGCAUCA
B17: chr8:95500983:95500984:-_ENSG00000164944_ENST00000437199|hu_hu|hu_hu_hu_mus_True|48_68 (ssRNA)
RNA: GGGAGUUCUACAGUCCGACGAUCAGAACACAUCUAUCGAGUAAAGGACCGUACAUGACGGCCUCUAACCACUGCCUCACUAACAAAACUUUCCUCUGAGCCUCCACUGCCGCUAUUUGUACUAGCCCAGGACGGUCCCAGGCCCAACAGAGGAUUGAGCAUCA
B18: chr8:38205342:38205343:-_ENSG00000147548_ENST00000316985|hu_mus|FALSE|FALSE (ssRNA)
RNA: GGGAGUUCUACAGUCCGACGAUCCAGAAUUUCAUGUGGUCUUGUGUUUGGAAUUUCUGAAUGGUAAUAGUCAGUAGGGCUAAAGUUUCUAACUGCACCAAAACCGUUGGCUGACCCAUUGGGAUACUGAUUAUAUGGCGGGUACAACAGAGGAUUGAGCAUCA
B19: chr4:120755967:120755968:-_ENSMUSG00000043207_ENSMUST00000058754|mus_hu|motif|central (ssRNA)
RNA: GGGAGUUCUACAGUCCGACGAUCGAUUGCAUCUUUCAUGAAGAACCCCAAAGUCUGUUGAUUGAAGCCAUGUUUUUCUUCGGUCACAAAAGUAUUAUAAAGACUCCAUGGCAAACCAGUCAAUGCACUGAAAAGUGUAGCCAACAACAGAGGAUUGAGCAUCA
B20: chr2:47389482:47389483:-_ENSG00000143933_ENST00000272298|hu_mus|FALSE|FALSE (ssRNA)
RNA: GGGAGUUCUACAGUCCGACGAUCCUCUGCUGCACUAAUAUAGCCAUUGCCAUCCUUAUCAAACACACGGAAUGCUUCUCUAAUCUCUUCUUCACUGUCUGUGUCUUUCAUUUUUCUUGCCAUCAUUGUCAGAAAUUCAGGGAACAACAGAGGAUUGAGCAUCA
B21: chr2:232320318:232320319:-_ENSG00000115053_ENST00000322723|hu_hu|hu_hu_hu_mus_True|28_58 (ssRNA)
RNA: GGGAGUUCUACAGUCCGACGAUCACUAUUAAAGUCUACAAAACCAAACCCUUUGGAAGAACCAGUUUCCCGAUCAGUAACUAUCCUUGCACGAACAGAGCCCUCAAAUGACUCCUUUAAGGUCUCUUCAGUGGUAUCCUCAGACAACAGAGGAUUGAGCAUCA
B22: chr18:77180173:77180174:+_ENSMUSG00000090000_ENSMUST00000026487|mus_hu|FALSE|FALSE (ssRNA)
RNA: GGGAGUUCUACAGUCCGACGAUCAACCUUUCUGCAUAAAACUGUAUUAUGAGAUAGGCAAACAAUCUCACAAGAUGGUCUGAGACAUAAAAACAAAAGACAACCUAUCCAGCAUCAAUGUCCUAUUGACAAACUCAAUGAAGACAACAGAGGAUUGAGCAUCA

biological target: T1, UNK ZnF1-3; test: nsRBNS (natural sequence RNA bind-n-seq); RBNS binding buffer (assumed for nsRBNS): 25 mM Tris pH 7.5, 150 mM KCl, 3 mM MgCl2, 0.01% Triton X-100, 500 ug/ml BSA, 20 U/ml SUPERase-In, 4 C; UNK is unkempt and MSI1 is Musashi-1; names of the RNAs are library labels; protein concentration not given here; high values mean tight binding

Binder | binding signal
B1 | 0 enrichment R
B2 | 1.76 enrichment R
B3 | 1.48 enrichment R
B4 | 2.85 enrichment R
B5 | 1.92 enrichment R
B6 | 0.8 enrichment R
B7 | 1.78 enrichment R
B8 | 0.252 enrichment R
B9 | 0.999 enrichment R
B10 | 1.18 enrichment R
B11 | 0.686 enrichment R
B12 | 0.921 enrichment R
B13 | 1.47 enrichment R
B14 | 1.06 enrichment R
B15 | 1.48 enrichment R
B16 | 0.775 enrichment R
B17 | 1.16 enrichment R
B18 | 1.27 enrichment R
B19 | 1.34 enrichment R
B20 | 0.86 enrichment R
B21 | 0.727 enrichment R
B22 | 0.919 enrichment R

— paper PMC12136788
